# Data reported in PubChem BioAssay (NCI).
# A structure can be active in one record and inactive in another.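 Results are percent growth after 48 hours of single-concentration exposure. 100 means growth as in untreated cells, lower positive values show inhibition; negative values down to -100 show cell death.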 For part of its entries the source gives two or more results. This is not the full list of results. There may be further records. How the source made its calls: active means growth percent below 10; inactive means the rest. This drug was run again and again over the years, at the concentration stated with the values; each value is one run. Additions like (4×) give the number of equal values in this list.
# Key:
# Experiment in all cases: NCI-60 one-dose screen, 48 h (100 = growth as untreated, 0 = no growth, -100 = all killed)
# [1] = system: U251 CNS; conditions: 2.5 mM
# [2] = system: PC-3 prostate; conditions: 2.5 mM
# [3] = system: SK-MEL-5 melanoma; conditions: 2.5 mM; runs of 1991
structure (smiles),measurement,setting,value
O=c1[nH]cc(F)c(=O)[nH]1,growth,[1]; runs of 1995,"inactive: 29.7, 18.8, 30.2, 21.1 (2×), 16.8, 28.9, 17.5, 20.3, 26.7, 15.2, 20, 33.7, 23, 24.2, 16.2, 26.8 (2×), 20.9, 27.8, 25.2, 25.6, 26.2, 23.7, 27.3, 25.3, 22.1, 19.7, 38.6, 25, 30.5, 19.6, 22.5, 30.3, 32.4, 17, 30.9% and active: 8.7%, 2.3%"
same,growth,[1]; runs of 1996,"inactive: 30.3, 21.8, 22.4 (3×), 25.9, 21, 26.3 (2×), 19.5, 27 (2×), 29.4, 20.7 (2×), 25.8, 24, 27.2, 27.7, 22.6, 17.2 (2×), 16.7, 21.1, 38.5, 25.5, 14.2, 35.5, 23.2, 33.3, 39.7, 26.1, 22.8, 19.2, 31.7, 21.6, 25, 12.1, 22.7, 24.7, 34.5, 27.9, 26.4 (2×), 44.5, 27.5, 23.3, 34.1, 24.1, 31.6% (2×) and active: 5.02%, -44.4%"
same,growth,[1]; runs of 1997,"active: -22.8, -100, -10.4, 9.02, -8.28, 1.51% and inactive: 33.5, 21.3, 90.8, 22, 20.5, 26.7 (2×), 20.8, 23.9, 24.1, 13.8, 23.7, 18.8, 18.2, 14.1, 17.6, 15.7 (2×), 32.3, 17.8 (2×), 15.3, 22.6 (2×), 12.7, 17.1, 25.2, 18.5, 17, 40.9, 17.9, 27.7, 27.4, 21.5, 20.1, 30.3, 25.4, 23.1, 25.5%"
same,growth,[1]; runs of 1998,"inactive: 21.3, 29.9, 26.3, 34.8, 53.4, 25.5, 30.9, 15.4, 18.2, 35.7, 12.9, 20.8, 18.1, 32.2, 33.8, 20.4, 13.8, 22.7, 27.5, 25.2, 17.7, 11.4, 22.3% and active: 4.66%"
same,growth,[1]; runs of 1999,"active: 8.09, -78.7, 0.495, -66.2, -47.5, 0.603, -50.5, -53.1, -100, -76.9% and inactive: 23.6%, 14.6% (2×), 14.3%"
same,growth,[1]; runs of 2000,"active: -35, 0.217, -31.2, -59.6%"
same,growth,[2]; runs of 1993,"inactive: 18.5 (2×), 25.8 (2×), 21, 17, 14.4, 10.2, 20.1, 16.1, 28.8 (2×), 16.4, 19.2, 17.7, 17.3, 25.2, 10.3, 23.3, 22.3, 26.7, 22.6, 38.3, 35.4, 71.2, 40.2, 14.5, 26.2, 38.8, 25% and active: 8.59, -4.57, 8.27, 4.04, 6.8, 9.48, 4.05, 9.67, 7.08, -2.35, -15, 8.84, -27.3, 3.1, -3.85, 7.01, -41.3%"
same,growth,[2]; runs of 1994,"inactive: 30.2, 21.2, 41.8, 14.3, 35.1, 37.6, 10, 26.9, 27.6, 35.9, 16, 67.2, 11.2, 26.8, 46.8, 25.9, 39.2, 17.1, 22, 18.7, 16.7, 27.1, 17.2, 12.5, 42.5, 23.4, 17.4, 11, 25.4% and active: 4.44, 4.76, 6.45, 3.33, 9.46%"
same,growth,[2]; runs of 1995,"inactive: 32.1, 15.6 (2×), 20.6 (2×), 21.1, 25.9, 11.4, 32.9, 15.2, 18.5, 21.8, 23.5, 14.5, 18.7, 15.5, 39.3, 22.4, 24.6, 34.6, 10.2, 13.4, 25.1, 11.1, 23.6, 22.3, 22.1, 13.8, 13.2, 24.8% and active: -5, -28.1, 2.97, -16.5, -3.56, -34.3, -25.2, -26.3, 7.52, 3.05%"
same,growth,[2]; runs of 1996,"inactive: 19.6 (2×), 26.6, 23.5, 30.4, 18.4 (2×), 18.2, 12.8, 34.9, 30.6, 26, 21.6, 20.7, 32.5, 27.8, 32.8, 14.4, 14.2, 35.2, 21.2, 23.6, 36.2, 36, 27.7 (2×), 22.2, 28.3, 25, 19.5, 15.2, 15.4, 37.7, 32.3, 22.1, 30.7, 10.7, 21.7, 18.3, 45, 43, 24.6, 11.2, 44.1, 33.9, 30.3% and active: 0.982, 9.5, -3.75, 7.61, -28.6, 5.81, 0.167, 9.36, 8.98, 6.8, 3.97, 6.96%"
same,growth,[2]; runs of 1997,"inactive: 30.2 (2×), 31.9, 18.2, 28.7, 17, 29.2, 24.6, 18.1, 52.9, 18.7, 25.3, 28.4, 13.8, 26.9, 24.7, 66.5, 37.2, 30.1 (2×), 10.7, 34.4, 21.8, 15 (2×), 16.4, 26.6, 40.3, 20.9, 11.7, 37.7, 26.1, 18, 20.2, 22.7, 25.9, 21.6, 26, 28.8, 25, 26.4, 29.5, 25.7, 31, 24.1% and active: -7.72%"
same,growth,[2]; runs of 1998,"inactive: 38.2, 18.7, 41.7, 26.5, 30.2, 36.5, 18.2, 40.4, 17.7, 32.8, 50.5, 16, 22.4, 21.3, 46.5, 42.3, 34.5, 37.8, 39.3, 43.5, 26.2% and active: 0.343%, 7.37%"
same,growth,[2]; runs of 1999,"inactive: 46.3, 36, 29.6, 12.9% and active: -20.3, -80, -9.34, 0.516, -20.7, 0.553, 1.97, -27.9, -21.5, -43.5, -33.4, -42.9%"
same,growth,[2]; runs of 2000,"active: -43.3, 0.112, -0.368, -29.2%"
same,growth,[3],"inactive: 10% and active: -0.716, -44.5, -28.9, -2.02, 3.11, -82.3, -53, -57.2, -45.3, -83, -4.96, -28.7, -14.2, 6.3, -27.1, -23%"
